The full ranking holds about 110,000 compounds; the median of “z-score” is about -0.1, and the highest 2% start at about 2. The list shows a part of the results.

In this experiment the target is Metabotropic glutamate receptor 8 (Rattus norvegicus) (UniProt P70579). In words: rat mGluR8 modulators via GIRK flux, primary screen, cell-based, thallium flux, HTS (AID 488969). Conditions: HEK293 rat mGluR8, GIRK (G protein-gated inwardly rectifying potassium channel) thallium flux, FluoZin2; at 10 µM; stronger effect = higher value; submaximal glutamate (EC20) added with thallium.
Sequence of UniProt P70579 (P70579 whole entry, looked up): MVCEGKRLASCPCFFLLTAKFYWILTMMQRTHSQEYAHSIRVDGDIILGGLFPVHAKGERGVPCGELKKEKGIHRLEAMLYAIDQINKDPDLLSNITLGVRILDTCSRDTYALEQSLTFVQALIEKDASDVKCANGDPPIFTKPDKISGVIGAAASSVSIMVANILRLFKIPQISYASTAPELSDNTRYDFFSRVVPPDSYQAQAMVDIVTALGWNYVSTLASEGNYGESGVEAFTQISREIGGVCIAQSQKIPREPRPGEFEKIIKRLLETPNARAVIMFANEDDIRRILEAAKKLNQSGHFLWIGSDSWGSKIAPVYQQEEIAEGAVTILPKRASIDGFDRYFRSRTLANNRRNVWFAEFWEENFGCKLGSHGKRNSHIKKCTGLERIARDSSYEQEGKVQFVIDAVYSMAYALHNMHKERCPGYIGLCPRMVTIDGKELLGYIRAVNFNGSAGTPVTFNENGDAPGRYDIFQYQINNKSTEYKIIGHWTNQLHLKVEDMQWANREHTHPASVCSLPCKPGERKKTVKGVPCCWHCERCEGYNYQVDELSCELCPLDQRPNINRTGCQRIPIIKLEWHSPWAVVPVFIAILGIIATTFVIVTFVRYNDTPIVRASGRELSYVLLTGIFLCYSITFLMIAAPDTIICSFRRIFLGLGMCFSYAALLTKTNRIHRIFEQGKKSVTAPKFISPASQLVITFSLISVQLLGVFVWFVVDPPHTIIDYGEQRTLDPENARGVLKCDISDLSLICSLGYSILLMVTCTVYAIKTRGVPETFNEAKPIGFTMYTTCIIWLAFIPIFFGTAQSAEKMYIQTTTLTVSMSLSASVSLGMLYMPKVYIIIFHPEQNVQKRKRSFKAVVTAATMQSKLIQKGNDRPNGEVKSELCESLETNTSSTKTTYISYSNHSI
For `CCOC(=O)C1CCCN(C(=O)c2cn(C)c3ccc(S(=O)(=O)N(C)C)cc3c2=O)C1` (centres undefined), the z-score is -0.568. Regarding `O=[N+]([O-])c1cc(-c2n[nH]c(-c3ccccc3)n2)cc([N+](=O)[O-])c1`, the z-score came to 1.48. Under `Cc1c(NC(=O)CN2C(=O)NC(C)(c3ccc4c(c3)OCCO4)C2=O)c(=O)n(-c2ccccc2)n1C` (centres undefined) stands -0.458. Under `CCCCNC(=O)c1nc2ncc(Br)cn2n1` stands 0.0529; under `Cc1cccc(C(=O)NNC(=O)c2ccc(-c3ccccc3)cc2)c1`, 0.252; under `CCc1cc2c3c(c(=O)oc2cc1OC)CCCC3`, 0.11. The result for `Cc1ccccc1OCCNC(=O)c1ccccc1Sc1ccccc1C#N` reads -0.491; that for `Cc1cc(C(F)(F)F)nn1CC(=O)NCc1ccccc1`, -0.468. Compound `CC(=O)n1cc(/C=N/NC(=O)c2sc(C)nc2C)c2ccccc21` yielded a z-score of -0.221. The result for `COC(=O)/C=c1/s/c(=C(/C#N)C(=O)N2CCCCC2)n(-c2ccccc2)c1=O` reads -0.333; that for `O=C(NCC(O)c1ccccc1)c1cccc(S(=O)(=O)N2CCOCC2)c1` (centres undefined), 0.795.

For the compound `CCOCCCNC(=O)C1CCC(=O)N1CCc1ccccc1` (centres undefined), the z-score was 0.278. For the compound `Cc1cnc(NC(=O)CSc2nnc(C)s2)s1`, the z-score is -0.32. `CCn1c2ccccc2c2cc(C3N=C(N)Nc4nc5ccccc5n43)ccc21` (centres undefined): the z-score is 0.109. For `Cc1ccc(NC(=O)c2ccc(-n3cccn3)c([N+](=O)[O-])c2)cc1C`, the z-score was -0.168. The result for `Cc1ccccc1N(C)C(=O)c1coc(=O)c2ccccc12` reads 0.0832; that for `CCOc1ccc(CNC(=S)NCc2ccc(OCC)cc2)cc1`, -0.199; that for `CCOC(=O)c1ccc(NC(=O)CSc2nnc(C3CC3)n2C)cc1`, 0.599. Under `CCN(CC)C(=O)c1sc2nc(-c3cccs3)cc(-c3ccc(Cl)cc3)c2c1N` stands -1.31; under `CCCOc1ccc(C(C)=O)cc1CSc1nc(O)cc(=O)[nH]1`, 0.000135; under `CC(=O)/C(=N/Nc1ccccc1)Sc1nnc(CCc2ccccc2)n1-c1ccccc1`, -0.689. For the compound `O=C(Cn1cc(C(F)(F)F)ccc1=O)N/N=C/c1ccc(Cl)cc1`, the z-score was 0.495. `COc1ccc(-c2nnc(NC(=O)CSc3ccccc3)s2)cc1OC` displayed a z-score of 0.0532. The result for `Cc1noc(/C=C/c2ccco2)c1S(=O)(=O)N1CCC(C(=O)N2CCc3ccccc3C2)CC1` reads -0.148. Compound `Cn1nnnc1SCC(=O)Nc1nc2c(s1)CCCC2` showed a z-score of -0.0232. Take `CC1(C)Cc2ccccc2-c2nc(-c3ccccc3)oc(=O)c21`: the z-score was determined as 0.322. For the compound `CC(=O)Nc1sc(N/N=C\c2ccccc2Cl)nc1-c1cccs1`, the z-score was 0.325. Under `CCCS(=O)(=O)c1snnc1C` stands 0.254.

`c1csc(COc2ccccc2CNC2CCCCC2)c1` displayed a z-score of 0.159. Under `COc1ccccc1NC(=O)NS(=O)(=O)c1ccc(C)cc1` stands 0.149; under `COc1cc(NC(=O)COC(=O)CSc2ccccc2F)c(C)cc1[N+](=O)[O-]`, -0.914. On to `O=C(CC(NS(=O)(=O)c1ccc(Cl)cc1)c1ccco1)NCc1cccnc1` (centres undefined), for which the z-score is -0.194. The result for `Cc1cc(OCC(=O)NCCN2CCOCC2)ccc1Br` reads -0.0883. The result for `O=C(NC1CCCC1)C1CCCN1S(=O)(=O)c1cccc2cccnc12` (centres undefined) reads -0.119. Under `O=C(C1CC1(c1ccccc1)c1ccccc1)N1CCOCC1` (centres undefined) stands 0.816. `O=C(O)C1CCCCC1C(=O)Nc1ccc2c(c1)CCC2` (centres undefined) yielded a z-score of -0.0401. Under `CCOC(=O)c1c(NC(=O)Cn2c(C)nc3ccccc32)sc2c1CCC2` stands -0.172. Under `COC(=O)c1ccc(NC(=O)CSc2n[nH]c(-c3ccncc3)n2)cc1` stands 0.78; under `Cc1cccc(C(=O)Nc2nnc(-c3ccc(C(C)(C)C)cc3)s2)c1`, 0.412; under `CC(=O)OC(C)(CCC(C)(OC(C)=O)C(C)=O)C(C)=O` (centres undefined), -0.269.

`COc1ccc(C2=C(O)C(C)N(c3ccccc3)C2=N)cc1OC` (centres undefined) displayed a z-score of -0.394. Under `Cc1ccc(Cl)cc1Nc1nc(-c2sc(NC(=O)C(C)(C)C)nc2C)cs1` stands -0.0396; under `Cc1ccc(C(c2sc3nc(C)nn3c2O)N2CCN(C(=O)c3ccco3)CC2)cc1` (centres undefined), -0.0257. The result for `O=P(OC1CCCCC1)(OC1CCCCC1)C(O)c1c(Cl)cccc1Cl` (centres undefined) reads -0.591; that for `Cc1cc(N2CCC3(CC2)OCCO3)n2nc(C)c(-c3ccc(Cl)cc3)c2n1`, 0.0151. Take `Cc1ccc(C2=NNC(C(O)C(O)C(O)CO)S2)cc1` (centres undefined): the z-score was 0.54. Compound `CC(=O)c1cc(-c2ccccc2)n(CCC(=O)NC2CCCCCC2)c1C` showed a z-score of -0.728. Compound `CCC(c1nnnn1Cc1ccco1)N(Cc1cc2cc(OC)ccc2[nH]c1=O)C1CCCCC1` (centres undefined) had a z-score of -0.547. As to `COc1cc2ncnc(NCc3ccccc3)c2cc1OC`, the z-score was -0.102. Under `O=C(CNC(=O)c1cccc(F)c1)N/N=C/c1cccc([N+](=O)[O-])c1` stands -0.00152. In turn, `Cc1c(NC(=O)CSc2ccc(Cl)cc2)cccc1-c1nc2cc(Cl)ccc2o1` yielded a z-score of -0.136. Compound `O=C(N/N=C/c1ccc(O)c(O)c1)C1c2ccccc2Oc2ccccc21` gave a z-score of -0.183. The result for `O=C(c1ccco1)N1CCN(c2ncnc3scc(-c4ccc(F)cc4)c23)CC1` reads 0.162; that for `COc1ccc(S(=O)(=O)N(C)CC(=O)Nc2ccccc2OC)cc1`, -0.484. On to `COc1cc(NC(=O)c2nccnc2C(=O)O)cc(OC)c1`, for which the z-score is -0.269. Under `CCOC(=O)C(=O)NNc1cccc(C)c1C` stands 0.602; under `CCCn1c(SCC(=O)c2cc(C)c(C)cc2C)n[nH]c1=O`, -0.844; under `Nc1c(NCc2ccccc2)c2ccccc2oc1=O`, -0.459. `Cc1ccc([N+](=O)[O-])c(OCCN2CCCCCC2)c1` gave a z-score of -0.0506. The result for `Cc1cc(OCC(=O)NCC(C)C)cc(C)c1Br` reads -0.137; that for `O=C1CCCc2ccccc2N1Cc1ccc(Cl)cc1Cl`, -0.185; that for `N#Cc1nc(COc2ccc(F)cc2)oc1NCCN1CCOCC1`, 0.0242. Turning to `CCOc1ccccc1NC(=O)c1cccc(NC(=O)CC(c2ccccc2)c2ccccc2)c1`, the z-score was -0.177. `CCc1ccc(NC(=O)CS(=O)CC(=O)NCC2OCCc3ccccc32)cc1` (centres undefined) registered a z-score of 0.192. The result for `C=CC1=C(C(=O)O)N2C(=O)C(NC(=O)Cc3ccccc3)C2SC1` (centres undefined) reads -0.434; that for `O=c1[nH]c2cc(Br)cnc2nc1/C=C(\O)c1ccc(F)cc1`, -0.28; that for `CC1=C(C#N)C(c2ccc3ncccc3c2)C(C#N)=C(C)N1`, -0.547. Under `Cc1sc2ncnc(N=Nc3c(O)[nH]c4ccccc34)c2c1C` stands -0.0288. On to `CCN(CC(=O)Nc1ccc(S(N)(=O)=O)cc1)S(=O)(=O)c1cc(C)ccc1OC`, for which the z-score was -0.393. `Cc1ccc2ncccc2c1[N+](=O)[O-]`: the z-score is -0.242. In the case of `CC(=O)N1CCN2C(=O)C1CCCC(=O)c1cc(C)ccc12` (centres undefined), the z-score was -0.767. Regarding `O=C(CCn1c(=O)c2ccccc2n(CC(=O)NC2CCCC2)c1=O)NCc1ccco1`, the z-score is -0.258. The result for `CCN(CC)S(=O)(=O)c1cc(C(=O)N2CCc3ccccc32)ccc1Cl` reads -1.5; that for `O=C1C=C(NCCNc2c(F)c(F)c(CO)c(F)c2F)CCC1`, -0.00916. Under `CCOC(=O)C1CCCN(S(=O)(=O)c2ccc(Br)c(OC)c2)C1` (centres undefined) stands -0.679; under `CCN1CCN(C(=O)Nc2cccc3ccccc23)CC1`, -0.222; under `CN1CC(=O)N(CC(=O)NCc2ccc(F)cc2)c2ccccc2C1=O`, 0.93. In turn, `O=C(CCn1cnc2ccccc2c1=O)Nc1ccc2c(c1)OCCO2` returned a z-score of 0.337. With `Fc1ccc(Nc2c(-c3ccco3)nc3ccccn23)cc1`, the z-score was -0.36. As for `N#CCCn1nc(-c2ccc(Br)cc2)cc1Nc1ccccc1NC(=O)C(F)(F)F`, the z-score turned out to be 0.396.

Compound `Cc1ccc(NC(=O)C(=O)NCCN2CCN(C(=O)C(c3ccccc3)c3ccccc3)CC2)cc1` registered a z-score of -0.0698. The result for `CCOc1ccccc1N/C=C/C(=O)C(C)(C)C` reads -0.207; that for `Cc1cc(NCCCN2CCOCC2)n2ncc(-c3ccccc3)c2n1`, 1.02; that for `Cc1[nH]n2c(=O)c3c(nc2c1-c1ccccc1)CCC3`, -1.66. `Cc1ccc(C(=O)NCCOC23CC4CC(CC(C4)C2)C3)cc1` had a z-score of -0.413. The result for `COc1ccc(/C=C2\SC(=S)N(NC(=O)c3csc4c3CCCC4)C2=O)cc1` reads -0.115; that for `O=C(CSc1nc(-c2ccccc2)cc(C(F)(F)F)n1)NCCN1CCOCC1`, 2.92; that for `O=C(OCN1C(=O)c2ccccc2C1=O)c1ccc2c(=O)n3c(nc2c1)CCC3`, 0.129. With `Cc1ccc(NC(=O)Cn2cnc3sc(C(=O)NCc4ccco4)c(C)c3c2=O)cc1Cl`, the z-score is -0.0832. The result for `O=C(CN1CCOCC1)NN=C1CCCCCCCCCCC1` reads -0.123; that for `CCc1cccc(NC(=O)CS(=O)Cc2nc(-c3ccc(C)cc3)oc2C)c1` (centres undefined), -0.236; that for `O=S(=O)(Nc1ccc(-c2nc3cccnc3s2)cc1)c1ccc(Cl)s1`, 0.175. The result for `Cn1c(SCC(=O)NC2CCCC2)nnc1-c1ccc(S(=O)(=O)N2CCOCC2)cc1` reads -0.122; that for `O=C(c1ccccc1)c1cn[nH]c1-c1ccccc1O`, -0.0732. For the compound `Cc1ccc2[nH]c3c(c2c1)CC/C(=C/c1ccccc1)C3=O`, the z-score was 0.221. With `Cc1cccn2cc(CCNS(=O)(=O)c3ccc4c(c3)OCCO4)nc12`, the z-score was -0.235. Under `Cc1ccc(NC(=O)c2ccc3c(c2)OCCO3)cc1S(=O)(=O)Nc1cccc(Cl)c1` stands 0.619; under `COC(=O)N/N=C/c1ccc(OCCSc2ccc(Cl)cc2)c(OC)c1`, 0.427; under `CC(=O)Nc1ccc(S(=O)(=O)NC2(C(F)(F)F)C(=O)Nc3c2c(=O)n(C)c(=O)n3C)cc1` (centres undefined), -0.194. The result for `CCOC(=O)c1cnc(SCC(=O)Nc2cccc(OC)c2)nc1N` reads 0.649; that for `O=S(c1ccc2ccccc2c1)c1cnns1` (centres undefined), 0.0599.

In the case of `Cc1onc(-c2ccccc2Cl)c1C(=O)NC(=S)Nc1ccccc1C(N)=O`, the z-score is -0.0945. In the case of `Cc1ccc(S(=O)(=O)N2CCN(Cc3nc4sc(C)c(C)c4c(=O)[nH]3)CC2)cc1`, the z-score is -0.106. The result for `Cc1ccc(N=C2C(=S)N(c3ccc(C)cc3)C(=N)N2/N=C/c2ccc(Cl)cc2)cc1` reads 0.425; that for `O=C(Nc1cccc(NC(=O)c2ccc(-c3ccc(Br)cc3)o2)c1)c1ccccc1`, -0.145; that for `C=CCNC(=O)/C(=C\c1cccc([N+](=O)[O-])c1)NC(=O)c1ccccc1`, -0.15. `Oc1cc(NCc2cccnc2)ccc1-c1nc2ccccc2o1` showed a z-score of 0.423.

The compound `C=CCSc1nnc(NC(=O)c2cccc(S(=O)(=O)N3CCOCC3)c2)s1` showed a z-score of -0.231.

In turn, `O=C(c1cccc2ccccc12)N1CCN(c2ccc([N+](=O)[O-])c(N3CCOCC3)c2)CC1` displayed a z-score of -0.806.

(Values after PubChem BioAssay AID488969 (Vanderbilt High Throughput Screening Facility, 2010).)
